From PubChem BioAssay AID1768 (National Center for Advancing Translational Sciences (NCATS), 2009)
Out of some 270,000 compounds screened, about 620 (0.23%) were called active. The inconclusive results got no clear call from the source; some entries with a clear call stand among them for comparison. Calls come from the whole dose curve; as a rule, active = well fitted inhibition curve with a large enough effect in the polarisation, with a control signal flat (not every such curve was filed as active); inconclusive = small, poorly fitted or top-dose-only effect, or effect the other way, or a change in a side signal; inactive = no such curve, though single readings can be large or run the other way; the % refers to the polarisation. Potencies beside an inconclusive call are fits to weak or partial responses and may not hold up. A note “side channel” means that the fit belongs to a control or component signal, not to the main read-out.
Potency is the fitted concentration of half-maximal effect; tags give direction and shape of the fitted curve or compound fluorescence and quenching.
Throughout, for FP activity change, negative = inhibition: % of control where 0% means no effect.

Each compound was assayed against Menin (Homo sapiens) (UniProt O00255) (assay: qHTS Assay for Inhibitors Targeting the Menin-MLL Interaction in MLL Related Leukemias: Competition With Texas Red Labeled MLL-derived Mutant Peptide). Details: fluorescence polarization; FP activity change, negative = inhibition: at 61.6 µM (top of the series).
Chain of UniProt O00255 (O00255 whole entry, looked up): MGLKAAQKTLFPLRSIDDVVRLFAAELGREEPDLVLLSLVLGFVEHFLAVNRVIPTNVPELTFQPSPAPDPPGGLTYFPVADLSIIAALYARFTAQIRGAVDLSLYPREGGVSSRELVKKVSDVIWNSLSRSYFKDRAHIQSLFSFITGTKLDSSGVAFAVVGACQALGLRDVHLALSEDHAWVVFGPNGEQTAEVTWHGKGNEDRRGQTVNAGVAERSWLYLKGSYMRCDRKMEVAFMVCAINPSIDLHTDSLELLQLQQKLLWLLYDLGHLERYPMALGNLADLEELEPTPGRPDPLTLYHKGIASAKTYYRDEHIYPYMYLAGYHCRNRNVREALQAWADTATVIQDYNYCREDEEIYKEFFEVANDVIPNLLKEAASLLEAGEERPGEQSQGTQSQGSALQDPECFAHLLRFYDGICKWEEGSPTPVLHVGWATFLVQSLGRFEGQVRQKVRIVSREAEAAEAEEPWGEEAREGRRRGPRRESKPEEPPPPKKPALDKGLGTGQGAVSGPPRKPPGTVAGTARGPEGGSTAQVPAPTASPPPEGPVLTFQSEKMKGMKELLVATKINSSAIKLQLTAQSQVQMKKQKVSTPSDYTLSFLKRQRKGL
COc1ccc(C(=O)C(CCC(CNC(C)(C)C)C(=O)c2ccc(OC)cc2)CNC(C)(C)C)cc1 (stereo unspecified) was tested, and the “FP activity change, negative = inhibition” value was inactive: -1.76%.
With O=C(C1=C[C@@H](c2coc3ccccc3c2=O)C[C@@H](OCc2ccc(CO)cc2)O1)N1CCCCCCC1 the Potency was inconclusive: 3.16 µM [fluorescent, side channel, full curve, poor fit].
For Clc1ccccc1CNCC1CCC(CNCc2ccccc2Cl)CC1 (stereo unspecified), the Potency was inconclusive: 39.8 µM [inhibitor, single point].
With O=C(NNS(=O)(=O)c1ccccc1[N+](=O)[O-])c1cc2ccccc2cc1O the Potency was inconclusive: 31.6 µM [quencher, side channel, single point].
With COc1ccc2nc(SCC(=O)Nc3cc(OC)c(OC)cc3C(=O)O)c(C)cc2c1 the Potency was inconclusive: 17.8 µM [quencher, side channel, partial curve].
COc1cccc(NC(=O)COc2cc(C)cc3oc(=O)cc(C)c23)c1 was tested, and the Potency was inconclusive: 35.5 µM [inhibitor, single point].
For O=C(CC(=O)NC1CCCCC1)N/N=C/c1cccc2ccccc12, the Potency was inconclusive: 35.5 µM [inhibitor, single point].
For Cc1ccc(OCCOc2cccc(/C=N/NC(N)=O)c2)cc1, the Potency was inconclusive: 31.6 µM [fluorescent, side channel, single point].
In the case of CCC(=O)N[C@@H]1Cc2ccccc2[C@@H](c2ccccc2)C1, the “FP activity change, negative = inhibition” value is reported as inactive: -8.62% [at 24.8 µM].
In the case of COc1ccccc1NCC(=O)N/N=C/c1c(O)ccc2ccccc12, the Potency is reported as inconclusive: 25.1 µM [quencher, side channel, partial curve].
For CCn1c(C(=O)O)c(CC(=O)Nc2ccccc2OC)c2ccccc21, the Potency was inconclusive: 35.5 µM [quencher, side channel, single point].
In the case of C/C(=N\NC(=S)NCCc1ccccc1)c1ccc(O)cc1O, the Potency is reported as inconclusive: 22.4 µM [quencher, side channel, partial curve].
In the case of CCc1cc(=O)oc2cc(C)c(CN3CCCC(C)C3)c(O)c12 (stereo unspecified), the Potency is reported as inconclusive: 39.8 µM [quencher, side channel, single point].
O=C(c1ccc(OC2CCN(Cc3ccccc3OC(F)F)CC2)cc1)N1CCCC1 was tested, and the Potency was inconclusive: 1.12 µM [inhibitor, full curve, poor fit].
In the case of Cc1cccc(C(=O)Oc2ccccc2/C=N/Nc2ccc([N+](=O)[O-])cc2)c1, the Potency is reported as inconclusive: 8.91 µM [quencher, side channel, partial curve].
In the case of COc1ccc(C2=Nn3c(nnc3-c3ccc(OC)cc3OC)SC2)c(OC)c1, the Potency is reported as inconclusive: 11.2 µM [inhibitor, partial curve].
